The RNAGym collection of RNA variant scans (doi:10.7554/elife.90254)
The source gives no read counts; variants with many changes may rest on few reads.

B1: LINE1-mini (parent)
chain: GGCAGAGCUCAACACAGCGUGGCAAAGUGGCUGUGGCUAGACUGCC

Variants of: B1
Assay: self-cleavage, relative activity (ratio to wild type); higher = more cleavage; in vitro, sequencing; the parent is a self-cleaving ribozyme

Variant	self-cleavage
G2U A6U A12C C23U U32G G35A A39G C45G	0.01
G2C U9A G21U C45A	0.42
G2C C8U A24U G40A C45G	0.03
G2C C8U A26C C46G	0.3
G2U A4G A12C A16C G30U U34A	0.01
G2U A16C U28G G30C	0.03
G2C C10G U34A U38G	0
G2C C13G A14G	0.02
G2U C18U G29U C42G	0.05
G2U A4U G5U C8U C23A G33U U43G	0.08
G2C G5U C10U	0.05
G2U C10A U38C	0.01
G2C C10U G21U G27C	0.04
G2U C3A A14G G19U A24G C42U	1.44
G2C G29U C42G	0.24
G2U A6C U28C G35C	0.01
G2C C15G C23G A25G U38C	0.02
G2U C3A A25C C46A	0.03
G2C G21C A26U U32G	0.03
G2C G36C G40A C42U	0.02
G2C U9C A14G C37A	0.04

Variant	self-cleavage
G2U C13U G22C G30U	0.03
G2U C13G C31A	0.01
G2C G35C A41U	0.02
G2U A26G C37U A39U	0
G2U C13U G33C A41U	0.02
G2U C8U A12U G29A	0.17
G2C G21A C23G G27U U34A	0.05
G2C C13U A14U C18A G35C A41U	0.01
G2C C10U C45G	0.24
G2U A4G G17C C31G	0.02
G2C C8U U9A U20A A25U G40U	0.36
G2C C15U U28C U38C U43C	0.07
G2C G5A A11C	0.04
G2C G5A A11U	0.02
G2C G22U G29A	0.3
G2U A24U C31A G35A	0.01
G2C G7U C10A G36C A39C	0.02
G2U A25U G35U C45G	0.05
G2C C15U G35C	0.1
G2C G7U C8A G17U A39U	0.11
G2U C13U G36A	0.02

Variant	self-cleavage
G2C G30C C37U	0.18
G2U C23U U32C	0.05
G2C U20C G35A C46A	0.02
G2C C10A G21C G22C G36U	0.03
G2C C8U G21U U34A	0.13
G2U C10G A14U A24U C31U	0
G2C G17U G36U	0.04
G2U C18G G21A G36C U38A	0.01
G2U C3A C13A A16C G22U A26G U28C C42G U43C	0.01
G2U A25G G44C	0.08
G2U C3A G19U C42G	0
G2U C3U C37U	0.04
G2U C3A A39G C46U	0.03
G2U C8A G30C G40U	0.01
G2C G33C U43C	0.01
G2C G7U C13A G40U	0.24
G2U A24U G35A U43G G44A C46U	0.12
G2U A4U G27U G36A	0.18
G2C G27A A41C	0.12
G2C G27C G30C A39U	0.08
G2C C15G C31U U34C	0.02

Variant	self-cleavage
G2C G5C G7U A39C G44A C46A	0.03
G2C C10U A11C C31A C46A	0.03
G2U C3A A11G U20C G29U A39G	0
G2C C8U G21C G27A G40A	0.06
G2U A4G C31U	0
G2C U9A C15U G22C A41C	0.02
G2U A12G G35A	0.01
G2C C15A G36C	0.1
G2U C3A A14U C18A G22U U28A G30U	0.03
G2C G5A G19U U38C	0.01
G2U C10U C15U	0.03
G2C G5U A14U	0.06
G2C C10G A14C	0.01
G2U C15A C31G U34C C37A	0.01
G2U C18U U28C	0.04
G2U C3A G35C	0.02
G2C G5A C10A	0.04
G2C G5A G33A	0.01
G2U C3A A6G A16C G22U C31A	0.13
G2U A6C A12C G30C U32G U34G C45G	0.01
G2C G21A U32G G33U U43G G44C	0.01
